# From PubChem BioAssay AID1347417 (National Center for Advancing Translational Sciences (NCATS), 2020)
# Values joined by “and” are separate entries in the source; they are usually repeats but may differ in a detail not shown here. Equal entries are not always repeated. About 5,300 (4.4%) of roughly 120,000 compounds were called active. The inconclusive results got no clear call from the source; some entries with a clear call stand among them for comparison. Calls come from the whole dose curve; as a rule, active = well fitted inhibition curve with a large enough effect; inconclusive = small, poorly fitted or top-dose-only effect; inactive = no such curve, though single readings can be large or run the other way. Where the call is inconclusive, the potency comes from a doubtful curve fit.
# Experiment: qHTS Primary assay for Inhibitors of Plasmodium falciparum Dd2 growth in vitro; note: nearly all actives have a fitted effect of over 65% in size;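 for activity, negative = inhibition: plate controls were DMSO vehicle for no effect and reference drug for full effect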
# Settings: P. falciparum Dd2 growth, SYBR Green, 72 h; activity, negative = inhibition: at 28.9 µM (top of the series) unless noted; series mostly up to 28.9 µM
# In short: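 Readout: SYBR Green fluorescence, 485 nm excitation, 535 nm emission, after ~16 h lysis at 37C. Before that, Dd2-infected red cells (2.5% hematocrit) grew 72 h with compound, 29 uM top final concentration.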
# Potency is the fitted concentration of half-maximal effect; tags give direction and shape of the fitted curve.
Compound,Potency,"activity, negative = inhibition",outcome
COc1ccccc1C(=O)N1CCC2(CC1)CC(=O)Nc1ccccc1O2,inactive,,
O=C1CCC(C(=O)N2CCCn3ccnc3C2c2ccccc2)=NN1 (centres undefined),inactive,,
COc1cc(=O)n2c(c1C(=O)Nc1cccc(Br)c1)CCCC2,inactive,,
CC(C)CCNC(=O)N1CC(c2nnc(-c3ccncc3)o2)C2(CCOCC2)C1 (centres undefined),inactive,,
CC(=O)NC1CCN(C(=O)Cc2c(C)[nH]c3c(C)ccc(C)c23)C1 (centres undefined),inactive,,
COc1cc2c(C(=O)N3CCN(c4ccc(F)cc4)CC3)cn(CC(C)C)c(=O)c2cc1OC,active: 10 µM,,
COc1ccc(C(=O)N(C)C2CCCc3ccccc32)cc1 (centres undefined),"inconclusive: 10 µM [inhibitor, partial curve, poor fit]",,
Cc1ccc(-c2[nH]ncc2CN2C[C@@H](Oc3ccccc3)C[C@@H]2C(=O)N2CCOCC2)cc1,"inconclusive: 17.8 µM [inhibitor, single point]",,
Cc1noc([C@@H]2CC(F)(F)CN2S(=O)(=O)c2cccc(F)c2)n1,inactive,,
COc1ccc(Br)cc1CNC(=O)C1CCN(c2nnc(-n3cccc3CNc3ccc(C)cc3)s2)CC1,"inconclusive: 17.8 µM [inhibitor, single point]",,
Cc1nccn1C(C)C(=O)NCc1cccnc1N(C)Cc1ccccc1 (centres undefined),"inconclusive: 11.2 µM [inhibitor, single point]",,
O=C(c1ccc(Cl)cc1)N1CC2(CCCN2CC2CCCCC2)Cc2ccccc21 (centres undefined),"inconclusive: 5.01 µM [inhibitor, partial curve]",,
Cc1ccc2c(C)c(C(=O)N3CC(OCc4ccccc4F)C3)oc2c1,inactive,,
CCCCNC(=O)Cc1csc2nc(C)c(-c3cc(C)n(-c4cccc(Cl)c4)n3)c(=O)n12,active: 7.94 µM,,
COc1cccc([S+](=O)([O-])N2CCC3(C2)C(=NC2CCCC2)NC(=O)N3c2cc(F)cc(F)c2)c1 (centres undefined),,inconclusive: -42.9% [inhibitor],
COc1ccccc1-c1cc2c(ccn2C)c(C(=O)NCC2CCOCC2)n1,"inconclusive: 22.4 µM [inhibitor, single point]",,
Cc1nn(C)c2c1c(-c1ccccc1)cc(=O)n2Cc1ccc(F)cc1Cl,"inconclusive: 17.8 µM [inhibitor, single point]",,
CCN(CC)C(=O)Cn1c(=O)n(-c2ccc(Cl)cc2)c(=O)c2c3c(sc21)CCCCC3,"inconclusive: 0.251 µM [inhibitor, full curve, poor fit]",,
CCCN(Cc1cccs1)C(=O)Nc1cc(C)cc(C)c1,"inconclusive: 15.8 µM [inhibitor, single point]",,
CCN(CC)[C@H]1[C@@H]2OC[C@@H](O2)[C@@H](NCc2ccccc2OC)[C@@H]1O,inactive,,
N#Cc1ccc(C(=O)N2CCN(C(=O)c3nnn4c3COC(c3ccc(Cl)cc3)C4)CC2)cc1 (centres undefined),"inconclusive: 10 µM [inhibitor, single point]",,
O=C(NCCc1ccccn1)c1ccc2c(c1)N(S(=O)(=O)c1ccccc1)CC2,"inconclusive: 2.51 µM [inhibitor, partial curve]",,
COCC(=O)Nc1ccc(-c2noc([C@@H]3CCCN3Cc3cc4ccccc4o3)n2)cn1,inactive,,

Compound,Potency,"activity, negative = inhibition",outcome
COC[C@@H]1CN(C(=O)c2ccc(OC)cc2C)C[C@H]1c1ccncc1,"inconclusive: 15.8 µM [inhibitor, single point]",,
Cc1ccsc1CN1CCCCC12Cc1ccccc1CNC2=O (centres undefined),"inconclusive: 11.2 µM [inhibitor, single point]",,
O=C(NC1CCCCC1)C1CN(C(=O)c2ccccc2)CC12CCOCC2 (centres undefined),inactive,,
CCOc1ccc(C(O)Cn2ccn3nc(-c4ccccc4C)cc3c2=O)cc1 (centres undefined),active: 12.6 µM,,
CCNC(=O)N[C@H]1C[C@@H](Cc2cc(CN3CCN(c4ccccc4)CC3)on2)C1(C)C,inactive,,
CN(C)C1CCN(C(=O)C2(N(C)CCc3ccccc3)Cc3ccccc3C2)C1 (centres undefined),active: 5.01 µM,,
Cc1cccc(C)c1NC(=O)Cn1c(=O)n(Cc2ccc(C(=O)NCc3ccco3)cc2)c(=O)c2sccc21,"inconclusive: 15.8 µM [inhibitor, single point]",,
CCOC(=O)Cc1cc(C(=O)Nc2ccc(Br)cc2)sc1-c1ccc(C)cc1,active: 7.08 µM,,
COC[C@H]1CCCN1C[C@H]1CN2CC[C@H]1C[C@@H]2CNC(=O)c1ccc(N(C)C)cc1,"inconclusive: 3.98 µM [inhibitor, full curve, poor fit]",,
CCCC(=O)N1CCc2cc(OC)c(OC)cc2C1COc1ccccc1OC (centres undefined),active: 12.6 µM,,
Cc1ccc([S+](=O)([O-])N2CCN(c3nc4ncccc4o3)CC2)cc1,"inconclusive: 4.47 µM [inhibitor, partial curve, poor fit]",,
Cc1ccsc1CN1CCC(Oc2cc(Cl)ccc2C(=O)N2CCCCC2)CC1,"inconclusive: 3.55 µM [inhibitor, partial curve]",,
CCOCCCn1c(=N)c(C(=O)NC(C)c2ccccc2)cc2c(=O)n3cc(C)ccc3nc21 (centres undefined),"inconclusive: 3.98 µM [inhibitor, partial curve, poor fit]",,
C#CCNC(=O)c1cc(-c2ccccc2OC)nc2c1cnn2C,,inconclusive: -45.6% [inhibitor],
COc1ccc2[nH]cc(CCNC(=O)Nc3ccccc3)c2c1,inactive,,
Cc1ccc(C)c(S(=O)(=O)N(C)CC2CCOC2)c1 (centres undefined),,,inactive [at 5.79 µM]
CCOc1ccc(CC(=O)N2CCC(C3CCNC3)CC2)cc1OCC (centres undefined),inactive,,
Cc1ccc(NC(=O)CN2C(=O)c3cccnc3Sc3ccccc32)cc1C,"inconclusive: 11.2 µM [inhibitor, single point]",,
CCCSc1ncc(Cl)c(C(=O)Nc2ccc(S(=O)(=O)N3CCCC(C)C3)cc2)n1 (centres undefined),"inconclusive: 12.6 µM [inhibitor, single point]",,
O=c1n(CCn2cccc2)nc(C2CCCNC2)n1-c1ccccc1 (centres undefined),"inconclusive: 14.1 µM [inhibitor, partial curve, poor fit]",,
CCCCN1CCc2[nH]cnc2C1c1cc(C)ccc1F (centres undefined),"inconclusive: 11.2 µM [inhibitor, partial curve]",,
O=C(NCc1ccccc1)N1CCC2(CC1)CC(N(C(=O)c1ccccc1)C1CC1)CCO2 (centres undefined),"inconclusive: 0.501 µM [inhibitor, full curve, poor fit]",,
Cc1ccc2nc(C3CCCN(CC4CCCC4)C3)[nH]c(=O)c2c1 (centres undefined),"inconclusive: 2.24 µM [inhibitor, partial curve, poor fit] and inconclusive: 31.6 µM [inhibitor, single point]",,

Compound,Potency,"activity, negative = inhibition",outcome
COc1ccc(C(=O)N2CCc3ccc(C(=O)NCc4ccccc4OC)cc32)cc1,"inconclusive: 3.16 µM [inhibitor, single point]",,
CCS(=O)(=O)N1CCC(n2c(C)cnc2C2CC2)CC1,inactive,,
CC(C)(C)C1CCC2(CC1)NC(=O)N(CC(=O)N1CCN(c3ccccc3)CC1)C2=O (centres undefined),"inconclusive: 3.16 µM [inhibitor, single point]",,
Cc1nc(N2CCC(NC(=O)CNC(=O)c3ccccc3)CC2)cc(C(F)(F)F)n1,inactive,,
O=C1Nc2ccccc2CC12CN(CC1CC1)C2,,inconclusive: -108% [inhibitor] [at 44.1 µM],
Cc1ccc(CNC(=O)CN2C(=O)NC3(CCC(C)CC3)C2=O)cc1 (centres undefined),inactive,,
CN1C(=O)[C@H]2CN(Cc3ccc(C(F)(F)F)cc3)C[C@H]2C1=O,inactive,,
Cc1ccc(NC(=O)N2CC3CCCN3c3ccccc32)cc1C (centres undefined),"inconclusive: 17.8 µM [inhibitor, single point]",,
CCOc1ccc(C(=O)N(C)C2CCc3nnc(C)n3CC2)cc1OCC (centres undefined),inactive,,
O=C1Nc2ccc(-c3ccc(Cl)cc3)cc2C(=O)N2CCN(C(=O)NC3CCCCC3)C[C@H]12,inactive,,
O=C(N1CCC2(CC1)CC(N(Cc1ccccc1)C1CC1)CCO2)C1(c2ccccc2)CC1 (centres undefined),"inconclusive: 2.51 µM [inhibitor, full curve, poor fit]",,
Cc1ccc(C(=O)NCc2cccnc2Oc2ccccc2F)c(=O)n1C,inactive,,
O=C(Nc1ccnn1C1CCN(C(=O)Cn2cccn2)CC1)C1CCCC1,inactive,,
O=C(c1ccccc1)N1CCC2(CC1)NCCc1c2[nH]c2ccccc12,"inconclusive: 5.62 µM [inhibitor, partial curve, poor fit]",,
CCN(CC)C(=O)c1cccc(-c2ccc(OCCn3ccnc3)cc2)c1,"inconclusive: 10 µM [inhibitor, single point]",,
CN(C)C(=O)N1CCC2(CC1)CN(C(=O)Cc1cccc(O)c1)Cc1ccccc1O2,inactive,,
CCOC(=O)c1c(C)[nH]c(C)c1S(=O)(=O)N1CCCC(C(=O)Nc2ncccc2C)C1 (centres undefined),inactive,,
CC(C)CCn1c(=O)c2cccnc2n(CC(=O)Nc2ccccc2)c1=O,"inconclusive: 17.8 µM [inhibitor, single point]",,
O=C(c1ccccc1)N1CCCC(Cc2nc(C3CCOCC3)no2)C1 (centres undefined),inactive,,
Cc1ccc(-c2nc3n(n2)C(c2ccccc2Cl)C=C(c2ccc(Cl)cc2)N3)cc1 (centres undefined),"inconclusive: 1 µM [inhibitor, full curve, poor fit]",,
CC(=O)c1ccc(NC(=O)OC[C@H]2C[C@@H]3CCN2C[C@@H]3c2cc(C3CCCC3)nc(-c3ccncc3)n2)cc1,"inconclusive: 2.24 µM [inhibitor, full curve, poor fit]",,
OCc1ccc(CN2C[C@H](O)C[C@H]2c2nc(-c3ccc(F)cc3)no2)o1,"inconclusive: 0.251 µM [inhibitor, single point]",,
CCOC(=O)c1ccccc1Nc1nc2ccc(C)cc2n2nnnc12,"inconclusive: 17.8 µM [inhibitor, single point]",,
